Experimental findings from the supplement of paper PMC9446081 are described below.

Hit rate of the full screen: of about 39,000 compounds, about 220 (0.56%) showed activity. The list shows a part of the results.
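Note: static incubation at 37 °C against the wild-type strain, values averaged over two biological replicates.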

The subject of the assay is Escherichia coli K-12 BW25113. In words: relative growth (OD600 normalised to plate interquartile mean) (fraction); higher = less growth inhibition, active = 0.2 or less. As to conditions: 50 µM; LB; incubation time: overnight (16-24 h).
Take `C[C@@H]1CCCCO[C@H](CN(C)Cc2ccc(Cl)c(Cl)c2)[C@@H](C)CN([C@H](C)CO)C(=O)c2cc(NC(=O)Nc3ccccc3)ccc2O1`: the relative growth was inactive: 1.06.
For `COc1ccc(NC(=O)Nc2ccc3c(c2)C(=O)N([C@H](C)CO)C[C@@H](C)[C@@H](CN(C)C(=O)C2CCCCC2)OCCCC[C@H](C)O3)cc1` the value was inactive: 1; for `C[C@@H]1CCCCO[C@H](CN(C)C(=O)C2CCCCC2)[C@@H](C)CN([C@@H](C)CO)C(=O)c2cc(NC(=O)CCC(F)(F)F)ccc2O1`, inactive: 1; for `C[C@H](CO)N1C[C@H](C)[C@@H](CN(C)C(=O)Nc2ccc3c(c2)OCO3)Oc2c(NS(=O)(=O)c3cn(C)cn3)cccc2C1=O`, inactive: 0.984.
The figure for `COc1ccc(NC(=O)Nc2ccc3c(c2)CC(=O)N([C@H](C)CO)C[C@H](C)[C@@H](CN(C)Cc2ccc(-c4ccccc4)cc2)O3)cc1` is inactive: 0.982.
The figure for `COC(=O)c1c(C)c2c(c(C)c1OC)OC(=O)c1c(C)c(Cl)c(OC)c(Cl)c1O2` is inactive: 1.17; for `CN1CC2(COC2)OCCS1(=O)=O` it is inactive: 0.978.
With `NCC(=O)N1C[C@H](NC(=O)c2ccccc2)C[C@H]1C(=O)O`, the relative growth is inactive: 0.994.
For `C[C@@H]1CN([C@H](C)CO)C(=O)Cc2cc(NC(=O)C3CCCCC3)ccc2O[C@H]1CN(C)S(=O)(=O)c1cn(C)cn1` the value was inactive: 0.996; for `Clc1ccc2sc(Sc3ccccc3)nc2c1`, inactive: 0.985; for `C[C@@H]1CCCCO[C@@H](CN(C)Cc2ccc3c(c2)OCO3)[C@@H](C)CN([C@@H](C)CO)C(=O)c2cc(NS(=O)(=O)c3ccc(F)cc3)ccc2O1`, inactive: 0.983.
For `C[C@H](CO)N1C[C@H](C)[C@@H](CN(C)S(=O)(=O)c2cccs2)OCCCC[C@H](C)Oc2ccc(NC(=O)Nc3cccc4ccccc34)cc2C1=O` the value was inactive: 1.04; for `C[C@H](NC(=O)c1c(N)nn2cccnc12)c1cc2cccc(C#Cc3cnn(C)c3)c2c(=O)n1-c1ccccc1`, inactive: 1.03; for `Cc1ccc(C(=O)NCCN2CCNC2=O)cc1`, inactive: 0.973.
Turning to `C[C@@H]1CCCCO[C@H](CN(C)Cc2ccccc2)[C@H](C)CN([C@H](C)CO)C(=O)c2cc(NC(=O)Nc3cccc4ccccc34)ccc2O1`, the relative growth was inactive: 1.02.
The figure for `CN(C)CCCCCCNC(=O)[C@H]1C[C@H]2C(=O)N3CCC[C@H]3C(=O)N2[C@H]1c1cccc(OCCO)c1` is inactive: 1.01; for `C[C@@H]1CCCCO[C@@H](CN(C)CC2CCCCC2)[C@H](C)CN([C@@H](C)CO)C(=O)c2cc(NS(=O)(=O)c3cccs3)ccc2O1` it is inactive: 1.04; for `C[C@H]1CN([C@@H](C)CO)C(=O)Cc2cc(NC(=O)Cn3cnnn3)ccc2O[C@H]1CN(C)Cc1ccc(C(=O)O)cc1` it is inactive: 1.01.
For `Cc1ccc(S(=O)(=O)Nc2ccc3c(c2)C(=O)N([C@H](C)CO)C[C@H](C)[C@H](CN(C)Cc2ccncc2)OCCCC[C@H](C)O3)cc1` the value was inactive: 0.982; for `CC(COc1ccccc1)NC(C)C(O)c1ccc(O)cc1.Cl` (stereo not given), inactive: 1.02; for `CSCC[C@H](NC(=O)[C@@H](N)Cc1c[nH]c2ccccc12)C(=O)N[C@@H](CC(=O)O)C(=O)N[C@@H](Cc1ccccc1)C(N)=O`, inactive: 0.975.
The figure for `COc1ccc(S(=O)(=O)N(C)C[C@H]2Oc3c(NC(=O)Nc4c(C)noc4C)cccc3C(=O)N([C@H](C)CO)C[C@@H]2C)cc1` is inactive: 0.993; for `CC(C)(C)c1n[nH]c(C(C)(C)C)c1Cc1c(F)cccc1Cl` it is inactive: 0.992; for `C[C@H](CO)N1C[C@H](C)[C@H](CN(C)Cc2ccc(C(=O)Nc3ccccc3N)cc2)Oc2ccc(NC(=O)Cc3cn(C)c4ccccc34)cc2CC1=O` it is inactive: 1.03.
As for `CCCNC(=O)N[C@H]1CC[C@H](CC(=O)N2CCN(C)CC2)O[C@@H]1CO`, the relative growth was inactive: 0.969.
The figure for `C[C@@H]1CN([C@@H](C)CO)C(=O)c2cc(NC(=O)Nc3ccc(C(F)(F)F)cc3)ccc2O[C@@H](C)CCCCO[C@H]1CN(C)C(=O)Cc1ccccc1` is inactive: 1.03; for `O=C(C[C@@H]1C=C[C@H](NC(=O)CN2CCOCC2)[C@H](CO)O1)NCCc1ccccc1` it is inactive: 0.941; for `C[C@@H]1CN([C@H](C)CO)C(=O)CCCn2cc(nn2)CO[C@@H]1CN(C)C(=O)Nc1ccc2c(c1)OCCO2` it is inactive: 0.979.
For the molecule `O=C(O)c1ccc(O)c(O)c1O`, the relative growth was inactive: 0.964.
Take `C[C@@H]1CCCCO[C@H](CN(C)C(=O)Cc2ccccc2)[C@H](C)CN([C@@H](C)CO)C(=O)c2cc(NC(=O)Nc3ccc4c(c3)OCO4)ccc2O1`: the relative growth was inactive: 0.986.
The figure for `COc1ccccc1NC(=O)N(C)C[C@@H]1Oc2ncc(Br)cc2C(=O)N([C@H](C)CO)C[C@@H]1C` is inactive: 0.946.
The figure for `C[C@H](CO)N1C[C@H](C)[C@H](CN(C)C(=O)C2CC2)Oc2ncc(-c3ccc(C(=O)N(C)C)cc3)cc2C1=O` is inactive: 0.985; for `C[C@H](CO)N1C[C@H](C)[C@H](CN(C)Cc2ccc(Oc3ccccc3)cc2)Oc2ccc(NC(=O)CCCN(C)C)cc2CC1=O` it is inactive: 1.02; for `Cc1[nH]c(/C=C2\C(=O)Nc3ccc(S(=O)(=O)Cc4c(Cl)cccc4Cl)cc32)c(C)c1C(=O)N1CCC[C@@H]1CN1CCCC1` it is inactive: 1.14.
As to `COc1ccc(CN(C)C[C@@H]2Oc3ccc(NC(=O)CCN4CCOCC4)cc3C(=O)N([C@@H](C)CO)C[C@H]2C)cc1`, the relative growth was inactive: 1.
In the case of `C[C@H](CO)N1C[C@H](C)[C@@H](CN(C)Cc2ccncc2)Oc2ccc(NS(=O)(=O)c3ccccc3)cc2CC1=O`, the relative growth is inactive: 0.981.
The figure for `COc1ccc(NC(=O)N(C)C[C@@H]2Oc3ccc(NC(=O)C4CC4)cc3CC(=O)N([C@H](C)CO)C[C@H]2C)cc1` is inactive: 0.984.
The figure for `COc1ccc(CN(C)C[C@H]2Oc3c(NC(=O)C4CCOCC4)cccc3C(=O)N([C@H](C)CO)C[C@@H]2C)cc1` is inactive: 1; for `C[C@@H]1CN([C@@H](C)CO)C(=O)Cc2cc(NC(=O)NC3CCCCC3)ccc2O[C@@H]1CN(C)Cc1ccc(-c2ccccc2)cc1` it is inactive: 0.992; for `Cn1ccc(C(=O)N2CC[C@@H]3OCCN(S(C)(=O)=O)[C@@H]3C2)n1` it is inactive: 0.984.
The figure for `C[C@@H]1CN([C@@H](C)CO)S(=O)(=O)c2ccc(-c3ccc(C(=O)N(C)C)cc3)cc2O[C@H]1CN(C)C(=O)C1CC1` is inactive: 1.
With `COc1cc(O)c2c(=O)c(OC)c(-c3ccc(OC)c(OC)c3)oc2c1`, the relative growth was inactive: 0.772.
For `C[C@H](CO)N1C[C@H](C)[C@H](CN(C)C(=O)Nc2ccc(F)cc2)Oc2ncc(-c3cccc(C(F)(F)F)c3)cc2C1=O` the value was inactive: 1.02.
For `C[C@@H]1CN([C@@H](C)CO)C(=O)c2cccc(NC(=O)Nc3cccc4ccccc34)c2O[C@H]1CN(C)S(=O)(=O)c1ccc2c(c1)OCCCO2` the value was inactive: 1.01.
The figure for `CN(CC(=O)Nc1cccc(S(=O)(=O)N2CCOCC2)c1)CC(=O)Nc1ccc(Cl)c(C(F)(F)F)c1` is inactive: 1; for `C[C@H]1CCCCO[C@H](CN(C)CC2CCCCC2)[C@@H](C)CN([C@@H](C)CO)C(=O)c2cc(NS(=O)(=O)c3cccs3)ccc2O1` it is inactive: 0.987.
On to `C[C@H](CO)N1C[C@H](C)[C@H](CN(C)Cc2cccc(F)c2)OCc2ccccc2-c2c(n(C)c3ccccc23)C1=O`, for which the relative growth was inactive: 1.02.
The figure for `C[C@H]1CCCCO[C@H](CN(C)S(=O)(=O)c2cccs2)[C@@H](C)CN([C@@H](C)CO)C(=O)c2cc(NS(=O)(=O)c3ccc(Cl)cc3)ccc2O1` is inactive: 1.02.
The figure for `Cc1ccc(S(=O)(=O)N(C)C[C@H]2Oc3ccc(NS(=O)(=O)c4ccccc4)cc3CC(=O)N([C@@H](C)CO)C[C@H]2C)cc1` is inactive: 0.993; for `O=c1cc(-c2ccccc2)oc2ccccc12` it is inactive: 0.995; for `COc1ccc(-c2cccc(-c3nc(C(=O)NCC(F)(F)F)cc4c3[C@H](CCO)N([S@@](=O)C(C)(C)C)C4)c2)cc1` it is inactive: 1.05.
For `C[C@@H]1CN([C@@H](C)CO)C(=O)Cc2cc(NS(=O)(=O)c3cccs3)ccc2O[C@H]1CN(C)S(C)(=O)=O` the value was inactive: 0.99; for `C[C@@H]1CN([C@H](C)CO)C(=O)c2c(c3ccccc3n2C)-c2ccccc2CO[C@H]1CN(C)Cc1ccccc1`, inactive: 1.01.
For `C[C@@H]1CN([C@H](C)CO)C(=O)c2cccc(NS(=O)(=O)c3cn(C)cn3)c2O[C@H]1CN(C)C(=O)Nc1ccc(F)cc1`, the relative growth was inactive: 1.01.
The figure for `COc1ccc(S(=O)(=O)Nc2ccc3c(c2)C(=O)N([C@H](C)CO)C[C@@H](C)[C@@H](CN(C)C(=O)CCC(F)(F)F)OCCCC[C@H](C)O3)cc1` is inactive: 0.991.
The figure for `C[N+](C)(C)CCCCCCNC(=O)[C@@H]1C[C@@H]2C(=O)N[C@@H](Cc3ccccc3)C(=O)N2[C@@H]1c1cccc(OCCO)c1` is inactive: 0.975; for `C[C@@H]1CCCCO[C@@H](CN(C)C(=O)Nc2ccccc2)[C@@H](C)CN([C@H](C)CO)C(=O)c2cc(NS(=O)(=O)c3ccc(Cl)cc3)ccc2O1` it is inactive: 0.996.
Regarding `CCS(=O)(=O)N1C[C@]2(C1)CN([C@H](CO)c1c2c2ccc(cc2n1C)OC)C(=O)Nc1c(noc1C)C`, the relative growth was inactive: 0.981.
For `C[C@H](CO)N1C[C@H](C)[C@@H](CN(C)Cc2ccc(Oc3ccccc3)cc2)OCc2ccccc2-c2c(n(C)c3ccccc23)C1=O` the value was inactive: 1.01; for `C[C@@H]1CCCCO[C@H](CN(C)S(=O)(=O)c2cccs2)[C@@H](C)CN([C@H](C)CO)C(=O)c2cc(NS(=O)(=O)c3cn(C)cn3)ccc2O1`, inactive: 0.974.
